Article PMC6525116
No constants are given. Whether binding was seen depends on the method and setting. For some of these results: In cells and extracts the contact can be indirect. Some results given as binding are weak or reduced against the parent protein; the word gives no strength.

Chains of the proteins cited; added tags and fusions are not shown. Residues count along the entry.
GluN2D 864–1323 (intracellular C-terminal domain) (Q62645, residues 864-1323): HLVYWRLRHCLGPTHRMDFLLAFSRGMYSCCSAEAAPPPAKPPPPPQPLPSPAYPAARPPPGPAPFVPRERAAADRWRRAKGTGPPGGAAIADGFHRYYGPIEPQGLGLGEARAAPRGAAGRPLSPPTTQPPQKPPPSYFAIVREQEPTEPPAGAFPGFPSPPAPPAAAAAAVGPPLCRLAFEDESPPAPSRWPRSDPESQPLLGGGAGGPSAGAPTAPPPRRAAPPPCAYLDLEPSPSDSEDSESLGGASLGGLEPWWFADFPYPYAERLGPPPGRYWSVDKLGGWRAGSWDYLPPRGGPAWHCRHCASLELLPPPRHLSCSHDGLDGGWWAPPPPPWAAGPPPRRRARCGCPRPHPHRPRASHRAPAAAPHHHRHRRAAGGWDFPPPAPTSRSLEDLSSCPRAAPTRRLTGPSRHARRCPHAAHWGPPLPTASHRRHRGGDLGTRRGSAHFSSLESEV
GluN2D 864–1318 (C-terminal domain lacking the ESEV PSD-95 MAGUK binding domain) (Q62645, residues 864-1318): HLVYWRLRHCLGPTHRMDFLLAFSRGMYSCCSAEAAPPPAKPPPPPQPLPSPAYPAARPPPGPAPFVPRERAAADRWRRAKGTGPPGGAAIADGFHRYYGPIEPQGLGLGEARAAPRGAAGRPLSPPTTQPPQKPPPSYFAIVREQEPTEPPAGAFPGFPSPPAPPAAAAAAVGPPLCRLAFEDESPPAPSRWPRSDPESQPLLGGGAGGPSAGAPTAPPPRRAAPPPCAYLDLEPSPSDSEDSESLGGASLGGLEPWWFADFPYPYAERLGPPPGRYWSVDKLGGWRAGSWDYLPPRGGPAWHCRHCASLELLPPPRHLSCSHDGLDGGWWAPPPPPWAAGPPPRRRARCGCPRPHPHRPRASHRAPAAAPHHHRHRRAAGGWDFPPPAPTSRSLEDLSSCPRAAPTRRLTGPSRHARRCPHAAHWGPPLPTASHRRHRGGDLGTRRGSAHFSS
GluN2A 838–1464 (C-terminal tail) (Q00959, residues 838-1464): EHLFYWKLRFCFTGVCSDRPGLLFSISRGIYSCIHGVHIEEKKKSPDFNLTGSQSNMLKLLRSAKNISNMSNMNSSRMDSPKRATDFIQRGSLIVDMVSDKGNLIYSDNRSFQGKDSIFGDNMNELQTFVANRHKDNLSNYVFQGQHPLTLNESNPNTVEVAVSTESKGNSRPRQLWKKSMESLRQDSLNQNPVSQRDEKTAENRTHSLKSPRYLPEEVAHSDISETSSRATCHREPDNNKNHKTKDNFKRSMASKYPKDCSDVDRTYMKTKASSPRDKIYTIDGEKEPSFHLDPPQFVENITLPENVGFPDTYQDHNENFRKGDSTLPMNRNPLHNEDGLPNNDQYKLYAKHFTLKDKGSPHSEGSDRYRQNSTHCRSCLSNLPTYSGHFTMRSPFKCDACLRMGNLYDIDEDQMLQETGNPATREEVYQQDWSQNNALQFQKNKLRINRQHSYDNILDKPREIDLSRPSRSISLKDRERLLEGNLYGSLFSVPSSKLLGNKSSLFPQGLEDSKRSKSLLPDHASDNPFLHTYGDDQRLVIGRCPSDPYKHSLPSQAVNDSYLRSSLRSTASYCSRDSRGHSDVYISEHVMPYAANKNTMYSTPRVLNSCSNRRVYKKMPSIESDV
GluN2A 838–1382 (Q00959, residues 838-1382): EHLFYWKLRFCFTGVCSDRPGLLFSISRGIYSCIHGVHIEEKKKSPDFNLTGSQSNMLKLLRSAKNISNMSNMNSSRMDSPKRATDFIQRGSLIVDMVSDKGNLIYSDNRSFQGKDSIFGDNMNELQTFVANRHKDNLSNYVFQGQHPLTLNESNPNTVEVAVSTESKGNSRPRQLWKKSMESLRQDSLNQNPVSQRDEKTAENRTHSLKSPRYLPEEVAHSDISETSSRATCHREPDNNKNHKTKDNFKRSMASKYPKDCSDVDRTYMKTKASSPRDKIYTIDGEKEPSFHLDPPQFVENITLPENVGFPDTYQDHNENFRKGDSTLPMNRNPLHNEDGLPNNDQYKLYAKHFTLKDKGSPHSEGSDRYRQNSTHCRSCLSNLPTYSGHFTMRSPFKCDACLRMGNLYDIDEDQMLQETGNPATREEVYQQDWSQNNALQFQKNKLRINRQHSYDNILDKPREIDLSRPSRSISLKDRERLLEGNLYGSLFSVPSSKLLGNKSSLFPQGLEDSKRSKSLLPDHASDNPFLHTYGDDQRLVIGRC
GluN2A 838–1157 (Q00959, residues 838-1157): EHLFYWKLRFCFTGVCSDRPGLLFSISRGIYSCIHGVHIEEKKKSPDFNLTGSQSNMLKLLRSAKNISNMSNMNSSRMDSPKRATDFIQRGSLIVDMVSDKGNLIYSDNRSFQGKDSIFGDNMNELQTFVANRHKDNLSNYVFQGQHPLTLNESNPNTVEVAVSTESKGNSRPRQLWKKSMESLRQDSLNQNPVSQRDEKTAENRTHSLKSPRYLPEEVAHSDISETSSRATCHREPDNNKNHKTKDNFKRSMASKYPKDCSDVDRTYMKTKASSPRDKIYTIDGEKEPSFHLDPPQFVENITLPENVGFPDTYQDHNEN

Assays:
[1] = biological target: GluN2D 864–1323 (intracellular C-terminal domain) (UniProt Q62645); experiment: two-hybrid; screen of a mouse brain cDNA library with the bait pGBKT7GluN2D 864–1323 in AH109 S. cerevisiae; -Leu/-Trp/-His/-Ade plates, 5–7 days at 30 °C, restreaked three times
[2] = biological target: GluN2D 864–1323 (intracellular C-terminal domain) (UniProt Q62645); experiment: two-hybrid; yeast mating assays: pGBKT7 bait constructs against pGADT7 fish constructs; diploid colonies on -Leu/-Trp/-His/-Ade agar counted after 7 days at 30 °C
GluN2A 838–1382 = GluN2A 838–1382 (UniProt Q00959); experiment: as above
[3] = biological target: GluN2A 838–1464 (C-terminal tail) (UniProt Q00959); experiment: as above
[4] = biological target: GluN2D 864–1318 (C-terminal domain lacking the ESEV PSD-95 MAGUK binding domain) (UniProt Q62645); experiment: as above
[5] = biological target: GluN1-1a 834–938 (cytoplasmic C-terminal domain) (UniProt P35439); experiment: as above
GluN2A 838–1157 = GluN2A 838–1157 (UniProt Q00959); experiment: as above
[6] = biological target: GluN2A, endogenous in adult rat brain (rat (endogenous in adult rat brain)) (UniProt Q00959); experiment: co-IP; adult rat brain (minus cerebellum) P2 membrane fraction, 1% sodium deoxycholate 100,000×g extract; precipitated with anti-GluN1 C2 or non-immune rabbit Ig for 16 h at 4 °C; immunoblots
[7] = biological target: GluN2A NMDA receptor subunit expressed in HEK 293 cells (UniProt Q00959); experiment: co-IP; HEK 293 cells co-transfected with GluN1/GluN2A/CtBP1^FLAG; 1% Triton X-100 extract (50 mM Tris-citrate pH 7.4, 240 mM NaCl, 5 mM EDTA, 5 mM EGTA); precipitated with anti-GluN1 C2 antibodies or non-immune Ig and protein A Sepharose at 4 °C; immunoblots with anti-GluN1 C2, anti-GluN2A (1381–1394) and anti-FLAG

Substance | binding [1] | binding [2] | binding (GluN2A 838–1382) | binding [3] | binding [4] | binding [5] | binding (GluN2A 838–1157) | binding [6] | binding [7]
CtBP1 1–224 (clone 47) (from UniProt O88712 1-224) (domain or fragment) | binds | binds | binds | binds | binds | no binding | no binding |  | 
CtBP1 161–306 (clone 37) (from UniProt O88712 161-306) (domain or fragment) | binds | binds | binds | binds | binds | no binding | no binding |  | 
CtBP1, endogenous in adult rat brain (from UniProt Q9Z2F5 1-430) |  |  |  |  |  |  |  | binds | 
FLAG-tagged full length CtBP1-I1 (from UniProt O88712 1-441) |  |  |  |  |  |  |  |  | binds
